The whole screen tested about 310,000 compounds, of which about 14,000 (4.5%) showed an effect of 50% or more. The effect is printed as a negative number. This is one part of the list.
target: human ether-à-go-go-related gene (hERG) potassium channel (human, UniProt Q12809); test: primary screen, population patch clamp on CHO cells stably expressing hERG
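Note: peak tail current of the secondary pulse compared with the same well before compound.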

human ether-à-go-go-related gene (hERG) potassium channel, sequence (Q12809 whole entry, looked up): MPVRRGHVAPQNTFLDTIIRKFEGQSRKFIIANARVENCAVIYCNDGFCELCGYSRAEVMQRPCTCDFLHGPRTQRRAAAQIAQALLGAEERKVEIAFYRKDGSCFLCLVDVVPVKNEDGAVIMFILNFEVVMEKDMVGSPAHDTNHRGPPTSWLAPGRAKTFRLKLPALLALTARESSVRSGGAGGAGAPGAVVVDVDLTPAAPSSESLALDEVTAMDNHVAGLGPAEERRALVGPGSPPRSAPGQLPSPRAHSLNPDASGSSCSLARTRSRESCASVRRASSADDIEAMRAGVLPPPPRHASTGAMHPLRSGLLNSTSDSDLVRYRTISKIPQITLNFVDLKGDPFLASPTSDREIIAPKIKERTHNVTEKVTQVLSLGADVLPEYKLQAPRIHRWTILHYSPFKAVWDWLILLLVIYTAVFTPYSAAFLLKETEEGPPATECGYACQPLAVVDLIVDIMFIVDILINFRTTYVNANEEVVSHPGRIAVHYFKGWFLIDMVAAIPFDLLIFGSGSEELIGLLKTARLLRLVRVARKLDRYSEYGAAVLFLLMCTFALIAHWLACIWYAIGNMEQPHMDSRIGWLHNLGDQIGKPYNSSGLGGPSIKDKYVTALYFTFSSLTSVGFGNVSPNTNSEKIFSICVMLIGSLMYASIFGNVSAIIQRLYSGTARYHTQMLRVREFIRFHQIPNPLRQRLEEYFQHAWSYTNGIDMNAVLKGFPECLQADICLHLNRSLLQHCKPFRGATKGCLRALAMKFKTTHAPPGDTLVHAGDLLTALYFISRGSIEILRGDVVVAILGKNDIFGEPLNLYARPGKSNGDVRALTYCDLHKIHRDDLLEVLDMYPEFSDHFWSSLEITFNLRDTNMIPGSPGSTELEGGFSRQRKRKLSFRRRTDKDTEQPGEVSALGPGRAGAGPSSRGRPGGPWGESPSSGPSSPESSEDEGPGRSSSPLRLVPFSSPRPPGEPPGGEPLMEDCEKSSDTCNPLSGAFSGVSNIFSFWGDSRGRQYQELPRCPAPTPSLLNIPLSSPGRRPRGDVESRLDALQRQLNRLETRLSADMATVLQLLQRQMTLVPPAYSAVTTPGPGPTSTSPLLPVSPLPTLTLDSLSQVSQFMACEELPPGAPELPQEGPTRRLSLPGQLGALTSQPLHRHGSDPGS

Point of comparison: NNC(=O)c1ccc(CN2C(=O)c3cccc4cccc2c34)cc1, “hERG current change (%, negative = inhibition) at 10uM” value -8.58%. Against it:
- O=C(CSc1nnc(-c2ccccc2)c(-c2ccccc2)n1)NCc1ccco1 — lower, -55.5%
- S=C(Nc1ccccc1)N1CCN(C/C=C/c2ccccc2)CC1 — lower, -8.71%
- CCCS(=O)(=O)N1CCN(Cc2ccncc2)CC1.O=C(O)C(=O)O — higher, 10.8%
- CCOC(=O)C1(Cc2ccccc2C)CCCN(S(=O)(=O)c2cccnc2)C1 (stereo not shown) — higher, -5.1%
- Cn1cccc1/C=C1\C(=O)NC(=O)N(Cc2ccccc2)C1=O — higher, 1.65%
- COc1ccc(/C=C(/NC(=O)c2ccccc2)c2nc3ccccc3[nH]2)cc1OC — lower, -12.5%
- Cc1cccc(NC(=O)CSC(N)=O)c1C — higher, 16.9%
- O=C(NC(=S)Nc1ccc(Cl)c(C(=O)O)c1)c1cncc(Br)c1 — higher, 20.1%
- CCOC(=O)c1ccc(CNC(=O)c2cc(COc3ccccc3SC)on2)o1 — higher, 1.07%
- CCCCn1c(SCC(=O)OC)nc2c1c(=O)n(C)c(=O)n2C — higher, -5.71%
- COCC(=O)N(c1ccc(C(C)C)cc1)C1C=CS(=O)(=O)C1 (stereo not shown) — higher, 15.9%
- O=C(O)C1Cc2ccccc2CN1C(=O)COc1ccc(Cl)cc1Cl (stereo not shown) — higher, 15.5%
- CCOc1cc(CNc2ccc(N3CCOCC3)cc2)cc(Br)c1OCC — higher, 11.3%
- CCOc1ccc(CC(=O)NNC(=O)NC2CCCCC2)cc1 — higher, 5.67%
- CN(C)c1cc[n+](CC(=O)N2c3ccccc3Sc3ccccc32)cc1.[Cl-] — higher, 6.95%
- COc1cc(SC#N)ccc1N=Cc1c(C)[nH]n(-c2ccc(C)cc2C)c1=O — higher, 20.8%
- Cc1ccc(C(=O)COC(=O)CNC(=O)c2ccc(N3C(=O)c4ccccc4C3=O)cc2)cc1C — higher, 10.7%
- NN/C(=C\[N+](=O)[O-])Nc1ccc(Cl)cc1 — higher, 13.6%
- CC1=CC(C)(C)N(C(=O)CN2C(=O)c3ccccc3C2=O)c2ccccc21 — higher, 0.597%
- NC[C@H](O)c1ccc(O)c(O)c1.O.O=C(O)C(O)C(O)C(=O)O — higher, 10.3%
- CCOc1ccc(S(=O)(=O)N2CCCC(C(=O)Nc3ccccc3)C2)cc1 (stereo not shown) — higher, 13.4%
- Cc1ccccc1C(=O)Nc1ccc(C(=O)O)cc1NC(=O)c1ccccc1C — higher, 17%
- CCOc1ccc(-c2csc(NC(=O)c3cccc(N4C(=O)CCC4=O)c3)n2)cc1 — higher, 0.594%
- CC1CCN(c2oc(-c3cccc4ccccc34)nc2C#N)CC1 — higher, 7.37%
- Cc1ccc(OCC(=O)N2CCN(C(=O)Cc3ccccc3)CC2)cc1 — lower, -38.4%
- CCOc1ccccc1OCC(=O)OCC(=O)c1c(N)n(CC(C)C)c(=O)n(C)c1=O — lower, -67.5%
- Cc1cccc(-c2ncc(S(=O)(=O)C(C)(C)C)c(N)n2)c1 — higher, 12.8%
- O=C(Nc1ccnc(-c2ccncc2)n1)c1cccs1 — lower, -16.8%
- COc1ccccc1/C=C/C=c1\sc2nc(=O)c(Cc3ccccc3)nn2c1=O — higher, 7.31%
- O=C1C=C(Nc2cccc(O)c2)CC(c2ccco2)C1 (stereo not shown) — lower, -11.1%
- N#Cc1cccc(C(=O)Nc2cccc(S(=O)(=O)N3CCCC3)c2)c1 — higher, 2.83%
- O=S(=O)(Nc1ccc(S(=O)(=O)Nc2cccc3ccccc23)cc1)c1ccccc1 — lower, -16.7%
- Cc1cc(NC(=O)c2cnn3cccnc23)nn1CC(=O)Nc1cccnc1 — higher, -3.28%
- O=C(NC(=S)NNC(=O)c1ccccc1[N+](=O)[O-])c1ccc(Br)cc1 — higher, 7.59%
- CCOC(=O)c1ccc(NC(=S)NCCCN2CCN(C3CCCCC3)CC2)cc1 — lower, -53.7%
- Cc1ccc(S(=O)(=O)N[C@@H](CC(C)C)C(=O)N2CCC(C(=O)N[C@@H](Cc3ccccc3)C(=O)O)CC2)cc1 — higher, 16%
- Cc1onc(-c2ccccc2Cl)c1C(=O)NC(=S)Nc1ccccc1C(N)=O — higher, 15.7%
- S=C1CCC(c2ccc(Br)cc2)=NN1c1ccccc1 — higher, 6.63%
- O=C(Nc1ccc(Cl)cc1)N(CCCN1CCOCC1)Cc1cccs1 — lower, -70.7%
- CCCCn1c(N)c(N(CCOC)C(=O)CSc2ccc([N+](=O)[O-])cc2)c(=O)[nH]c1=O — lower, -22.7%
- Cc1ccc(C)c(NC(=O)c2cc(-c3cc(C)c(C)cc3O)n[nH]2)c1 — higher, 11.6%
- O=C(NC1CCCCC1)C(=O)c1c[nH]c2ccccc12 — higher, 3.23%
- COC(=O)c1ccc(NC(=O)CSc2nnc(C)n2-c2ccccc2)cc1 — higher, -2.35%
- O=C(COc1ccccc1)Nc1ccccc1N1CCCCC1 — higher, 2.27%
- c1coc(-c2ncc[nH]2)c1 — higher, 12.9%
- CC(=O)c1ccc(N2CCN(CC(=O)N(C3CC3)C3CCS(=O)(=O)C3)CC2)c(F)c1 (stereo not shown) — lower, -12%
- O=C1c2ccccc2C(O)N1c1cccnc1 (stereo not shown) — higher, 16.5%
- Cc1ccc(OCc2csc(N)n2)cc1 — higher, -0.946%
- Cc1cccc(NC(=O)NNC(=O)c2nn(C)cc2Br)c1 — higher, -7.1%
- COc1cc2c(ccc3cc(OC)c(OC)c(O)c32)cc1O — higher, 13.4%
- CC(C)(C)NC(=O)c1ccc(NC(=O)CSc2ccccc2)cc1 — higher, 8.17%
- CC1=NN(Cc2ccccc2)C(=O)C1C(c1ccc(Cl)cc1)C(C#N)C#N (stereo not shown) — higher, 20.5%
- O=C(O)c1cccc(N/N=C/c2ccc(OC(F)(F)F)cc2)c1 — higher, 15.5%
- CCCCn1c(C)cc(/C=C(\C#N)C(=O)O)c1C — lower, -80%
- Cc1occc1C(=O)Nc1cc(=O)n(C)c(=O)n1C — higher, 13.2%
- O=C(Cc1ccccc1)c1c[nH]c(C(=O)NCc2ccncc2)c1 — higher, 7.06%
- CCn1c(SCC(=O)N/N=C/c2ccccc2OCC(=O)O)nnc1-c1ccc(C(C)(C)C)cc1 — higher, 12.5%
- CC(C)c1ccc(NC(=O)N2CCC(c3nc4ccccc4o3)CC2)cc1 — lower, -30.7%
- CC(C)NC(=O)C(Sc1ccccc1)c1ccccc1 (stereo not shown) — higher, 11.3%
- COc1ncnc2c1N[C@@](C)(O)c1c(F)c(F)c(F)c(F)c1S2 — higher, 10.8%
- CN1CCN(CC(O)(c2ccc(Cl)cc2)c2ccc(Cl)cc2)CC1 — lower, -73.3%
- COc1ccc(NC(=O)CSCC(=O)Nc2ccc(S(=O)(=O)N3CCCCC3)cc2)cc1 — lower, -35.7%
- N#CC(=C1CCCC1)c1nc(-c2ccccc2)cs1 — higher, 1.02%
- COc1ccc(N2CCN(CCNC(=O)CCC(=O)NNc3nc4ccccc4c4nc(C)nn34)CC2)cc1 — higher, 4.9%
- Cc1cccc(OCC(=O)N2CCc3ccccc3C2)c1 — higher, 0.0245%
- Cc1cc(NC(=O)CC2CCCC2)n(-c2nc3ccccc3[nH]2)n1 — lower, -9.55%
- C=CCN1CC2CC3(COc4cc(C)cc(C)c4)C=CC2(O3)C1=O (stereo not shown) — higher, 1.91%
- CC(=O)Nc1ccc(/C=C/C(=O)c2ccccc2)cc1 — higher, 9.09%
- CC1COc2ccccc2N1C(=O)c1cccnc1Cl (stereo not shown) — higher, 15.1%
- CCN1CCN(c2c(Cl)cccc2NC(=O)c2ccc([N+](=O)[O-])cc2)CC1 — lower, -72%
- c1ccc(OCc2nn3c(-c4ccccn4)nnc3s2)cc1 — lower, -9.49%
- COc1ccc(-c2nc(NC(=O)C3=NN(c4cccc(C)c4)C(=O)CC3)sc2C)cc1 — higher, 0.982%
- O=C(/C=C/NNC(=O)c1ccccc1)c1ccc([N+](=O)[O-])cc1 — higher, 4.38%
- COc1ccc(NC(=S)NCCSc2ccc(C)cc2)c(OC)c1 — higher, 5.2%
- Cc1ccc(OCc2cc(C(=O)NC3CCc4ccccc43)no2)cn1 (stereo not shown) — lower, -10.4%
- CCOc1ccc(S(=O)(=O)Nc2ccc(C(=O)N(C)CC(=O)Nc3ccc(OC)cc3)cc2)cc1 — higher, 14.2%
- O=C1NC(c2ccc(Br)cc2)Nc2ccccc21 (stereo not shown) — lower, -8.81%
- COc1ccc(CCn2c(O)c(C=NCc3cccnc3)c(=O)[nH]c2=O)cc1OC — higher, 3.63%
- COC(=O)[C@H]1C[C@@H]1[C@H](NS(=O)(=O)c1ccc2ccccc2c1)c1ccccc1 — higher, 6.23%
- Cc1cccc(NC(=S)N(C)C)c1C — higher, -6.21%
- O=C(COc1ccccc1)Nc1cccc(-c2cn3cccnc3n2)c1 — lower, -23.5%
- Cc1ccccc1C(=O)Nc1ccnn1C1CCN(C(=O)C2CCOC2)CC1 (stereo not shown) — higher, 9.33%
- C#CCn1cc(/C=N/NC(=O)COc2cccc3cccnc23)c2ccccc21 — higher, 21.1%
- Nn1c(SCC(=O)NC(=O)NCc2ccco2)nnc1-c1ccc(OC(F)F)cc1 — lower, -45%
- Cc1cc(C)c(S(=O)(=O)NCc2ccc3c(c2)OCO3)c(C)c1 — higher, 16.3%
- Cc1cc(=O)[nH]c(SCc2cccc3cccnc23)n1 — higher, 13.3%
- Cc1ccc(SCCC(=O)Nc2ccc(Br)c(C)c2)cc1 — higher, 7.7%
